# From PubChem BioAssay AID686979 (National Center for Advancing Translational Sciences (NCATS), 2013)
# The whole screen tested about 420,000 compounds, of which about 50,000 (12%) were called active. This list was built around the results that the source calls inconclusive (neither active nor inactive); the mix of calls is not that of the screen. Calls follow the shape of the dose curve; as a rule, active = well fitted inhibition curve with a large enough effect; inconclusive = small, poorly fitted or top-dose-only effect; inactive = flat fitted curve, though single readings scatter. Potencies of inconclusive entries are left out as doubtful fits.
# Test: qHTS for Inhibitors of human tyrosyl-DNA phosphodiesterase 1 (TDP1): qHTS in cells in presence of CPT; also: nearly all actives have a fitted effect of over 55% in size
# Details: chicken DT40 Tdp1-/-;hTDP1 cells + 20 nM CPT, ATP luminescence, 48 h; series mostly up to 46.2 µM
# Procedure, shortened: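 Chicken DT40 Tdp1-/- cells complemented with human TDP1, 400 cells/well, exposed to compounds plus 20 nM camptothecin for at least 48 h at 37 C; viability read as ATP content by CellTiter-Glo luminescence.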
# Potency is read from the fitted curve at half-maximal effect; tags tell the direction and shape of the fitted curve.
row,Structure (SMILES),Potency
1,COc1ccc(N=CC2=C(O)c3ccccc3C2=O)cc1,"inconclusive [inhibitor, partial curve]"
2,CCCCC(Sc1nc2cc3c(cc2c(=O)n1CCCC(=O)NCc1ccc(OC)cc1)OCO3)C(=O)OCC (centres undefined),active: 4.61 µM
3,N#CCSc1nnc(COc2cccc3ccccc23)n1-c1ccccc1,active: 16.4 µM
4,O=C(Nc1ccc2c(c1)Cc1ccccc1-2)c1ccc(Br)o1,"inconclusive [inhibitor, single point]"
5,COc1ccc2c(C)c(CC(=O)NCc3ccc(C)cc3)c(=O)oc2c1OC,inactive
6,C=CCOC(=O)C1=C(C)OC(N)=C(C#N)C1c1ccccc1F (centres undefined),"inconclusive [inhibitor, single point]"
7,CCn1c(CCc2ccccc2)nc2ccccc21,"inconclusive [inhibitor, single point]"
8,CC(C)OCCCNC(=O)c1cc2c(-c3ccc(Cl)cc3)nn(C)c2s1,"inconclusive [inhibitor, single point]"
9,Cn1c(=O)c(-c2cc(F)cc(F)c2)nc2cnc(N3CCOCC3)nc21,inactive
10,O=C(COc1ccc(Br)cc1)Nc1ccc(CN2CCOCC2)cc1,"inconclusive [inhibitor, single point]"
11,COC(=O)C1=C(C)N(Cc2ccccc2)C(=NCc2cccc(C(F)(F)F)c2)N[C@H]1c1cccc(F)c1,active: 6.51 µM
12,CCC(C(=O)OCC(=O)Nc1ccc(Cl)c(S(=O)(=O)N(C)C)c1)c1ccccc1 (centres undefined),"inconclusive [inhibitor, single point]"
13,COc1cc2c(cc1CN1CCN(C(=O)c3cc(OC)c(OC)c(OC)c3)CC1)OCO2,inactive
14,O=C(Nc1ccc([N+](=O)[O-])cc1)c1cc2ccccc2nc1Cl,"inconclusive [inhibitor, single point]"
15,CC(C)(C)NC(=O)C(c1ccc(-c2ccccc2)cc1)n1c(=O)c(-c2cc3ccccc3[nH]2)nc2ccccc21 (centres undefined),"inconclusive [inhibitor, single point]"
16,COc1ccc(CNCc2cn(-c3cccc(F)c3)nc2-c2ccc(C)o2)cc1,"inconclusive [inhibitor, single point]"
17,O=C(CCNC(=O)c1ccc(Br)cc1)Nc1cccc(S(=O)(=O)N2CCCCC2)c1,"inconclusive [inhibitor, single point]"
18,Cc1c(Cl)cccc1S(=O)(=O)N1CCC(C(=O)NNC(=O)C2CC2)CC1,inactive
19,CCOC(=O)C1CCN(CCCSc2ccccc2)CC1,inactive
